# Test results as given in PubChem BioAssay (NCATS).
# This list was built around the results that the source calls inconclusive (neither active nor inactive); the mix of calls is not that of the screen. No potency is given beside an inconclusive call; the fits are too rough. Activity calls are given as the source filed them. Calls follow the shape of the dose curve; as a rule, active = well fitted inhibition curve with a large enough effect; inconclusive = small, poorly fitted or top-dose-only effect; inactive = no such curve, though single readings can be large or run the other way.
# Tested on: Zika virus NS2B-NS3 protease (unlinked)
# Assay: Optimization of GU AMC qHTS for Zika virus inhibitors: Unlinked NS2B-NS3 protease assay (AID 1347151); also: nearly all actives have a fitted effect of over 80% in size;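 as to activity change, negative = inhibition: 0% = no-inhibitor control and -100% = no-enzyme control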
# Settings: recombinant ZIKV NS2B-NS3 protease, fluorogenic AMC substrate; series mostly up to 52.5 µM; activity change, negative = inhibition: at the top concentration
# Source text: Avindra Nath, Ph.D., National Institute of Neurological Disorders and Stroke (NINDS), Bethesda, MD
# Radhakrishnan Padmanabhan, Ph.D., Georgetown University (GU), Washington D.C.
# Zika Virus causes congenital defects, including microcephaly and is associated with Guillain-Barre syndrome, eningoencephalitis and myelitis in infected adult. […] Using a target-based approach, we hope to establish a screening paradigm to uncover novel, cell-active NS2B-NS3 protease (Zika Virus) specific inhibitors from NCATS' collection of small molecules using qHTS.
# Early Translation Branch (ETB)
# National Center for Advancing Translational Sciences (NCATS), Rockville, MD
# National Institute of Health (NIH), Bethesda, Maryland
# Padmanabhan lab provided the NS2B hydrophilic domain and NS3 protease domain in a noncovalent complex used for the unlinked assay. Control compound aprotinin is obtained from Thermo Scientific (#78432; Waltham, Massachusetts). NS2B-NS3 AMC substrate (Bz-Nle-Lys-Arg-Arg-AMC; Nle-KRR-AMC) purchased from Bachem (#I-1995; Torrance, CA). Ac-VKTGKR-AMC purchased from Genscript or Bachem, Ac-FAAGKR-AMC purchased from Genscript, Ac-GLVKRR-AMC purchased from Genscript, Ac-LKKR-AMC purchased from Genscript.
# GU AMC unlinked NS2B-NS3 protease qHTS protocol:
# Briefly, 3 microL of Zika virus unlinked NS2B-NS3 protease (25 nM for linked final concentration), in assay buffer (10 mM Tris-HCl pH 8.0 with 0.01% Tween 20) was dispensed into a 1,536-well solid-bottom black plate (Greiner Bio One, Monroe, NC). Twenty-three nL of compounds (final concentration range 7.28 nM to 114 microM) or control Aprotinin (final concentration range 3.47 nM to 114 microM) were transferred via Wako Pin-tool (Wako Automation, Richmond, VA). […] Plates were then read immediately on a ViewLux High-throughput CCD imager (PerkinElmer, Waltham, MA) equipped with standard UV fluorescence optics (340(30) nm excitation, 450(20) nm emission) then incubated (room temperature, protected from light) for 15 minutes (~20% conversion). The change in fluorescence intensity over the 15-minute reaction period was normalized against no-inhibitor and no-enzyme controls and the resulting percent inhibition data were fitted to a 4-parameter Hill equation. Aprotinin was used as the intraplate control.
# Potency is read from the fitted curve at half-maximal effect; tags tell the direction and shape of the fitted curve.
Compound,"activity change, negative = inhibition",Potency
O=C(O)CP(=O)(O)O,inactive: 4.33%,
CN1C(=O)CC[C@H]1c1cccnc1,,"inconclusive [inhibitor, partial curve, poor fit]"
COc1ccc2c(c1)c(CC(=O)O)c(C)n2Cc1ccc(Cl)cc1,,"inconclusive [inhibitor, partial curve]"
Nc1ccc2c3c(cccc13)C(=O)NC2=O,,"inconclusive [inhibitor, partial curve, poor fit]"
CC1=C(C(=O)O)N2C(=O)[C@@H](NC(=O)C(N)C3=CCC=CC3)[C@H]2SC1 (stereo not given in full),inactive: -22.9%,
CCCOC(=O)c1c(-c2ccccc2)nc(CC)c(C(=O)SCC)c1CCC,,"inconclusive [inhibitor, single point]"
NC(=Nc1ccccc1)NC(=O)c1nc(Cl)c(N)nc1N,,active: 26.7 µM
CN1CCCC1CCOC(C)(c1ccccc1)c1ccc(Cl)cc1 (stereo not given),inactive: 26.9%,
CCn1nc(C(=O)O)c(=O)c2cc3c(cc21)OCO3,,"inconclusive [inhibitor, partial curve, poor fit]"
O=C1NC(=O)c2cc(Nc3ccccc3)c(Nc3ccccc3)cc21,,"inconclusive [inhibitor, partial curve]"
C=CCNc1ncnc2ccc(Br)cc12,inactive: 4.11%,
CCN(c1nc(N)c(C(=O)N=C(N)N)nc1Cl)C(C)C,,"inconclusive [inhibitor, partial curve]"
N[C@@H](Cc1cnc[nH]1)C(=O)O,inactive: 3.93%,
Clc1ccc(N2CCN(Cc3cc4ccccn4n3)CC2)cc1,,"inconclusive [inhibitor, single point]"
O=c1[nH]c2cc(Cl)ccc2c(O)c1-c1ccc(Oc2ccccc2)cc1,,"inconclusive [inhibitor, single point]"
Nc1nc2ccc(Cl)cc2c2nc(-c3ccco3)nn12,,"inconclusive [inhibitor, partial curve, poor fit]"
Cn1c(=O)c2c(nc(/C=C/c3cccc(Cl)c3)n2C)n(C)c1=O,,active: 11.9 µM
COc1cc(/C=C(\C#N)C(=O)c2ccc(O)c(O)c2)cc(I)c1O,,"inconclusive [inhibitor, partial curve, poor fit]"
CNC(=O)c1cc2c(cn1)[nH]c1ccccc12,,active: 26.7 µM
O=C(NOCC1CC1)c1cc(Br)c(F)c(F)c1Nc1ccc(I)cc1Cl,,"inconclusive [inhibitor, full curve]"

Compound,"activity change, negative = inhibition",Potency
CCn1cc(C(=O)O)c(=O)c2cc3c(cc21)OCO3,,active: 23.8 µM
N#CC(=C(\N)Sc1ccccc1N)/C(C#N)=C(/N)Sc1ccccc1N,,"inconclusive [inhibitor, partial curve]"
CN(C)S(=O)(=O)c1ccc2c(c1)/C(=C/c1cc3c([nH]1)CCCC3)C(=O)N2,inactive: -7.99%,
O=C(O)c1cc2cc(Cc3cccnc3)ccc2o1,inactive: -3.54%,
COc1ccc(/C=C/c2nc(NCCCN(C)C)c3ccccc3n2)cc1,,active: 26.7 µM
O=C(O)Cc1c[nH]c2ccc(O)cc12,,"inconclusive [inhibitor, single point]"
O=C1C2C=CC=CC2=NC(=S)N1CCN1CCC(=C(c2ccc(F)cc2)c2ccc(F)cc2)CC1 (stereo not given),,"inconclusive [inhibitor, partial curve, poor fit]"
O=C(/C=C/c1ccc(O)c(O)c1)OCCc1ccccc1,,active: 6.7 µM
CC(C)NCC(O)COc1cccc2ccccc12 (stereo not given),,"inconclusive [inhibitor, partial curve, poor fit]"
CCCCCCCCc1ccc(-c2ccc(C(=O)O)cc2)cc1,,active: 11.9 µM
N#C/C(=C\c1ccc(O)c(O)c1)C(=O)NCCCNC(=O)/C(C#N)=C/c1ccc(O)c(O)c1,,active: 0.597 µM
OCC1O[C@H]([S-])[C@H](O)[C@@H](O)[C@@H]1O.[Au+] (stereo not given in full),inactive: -6.59%,
CO[C@H]1C[C@H](O[C@@H]2/C(C)=C/C[C@@H]3C[C@@H](C[C@]4(CC[C@H](C)[C@@H](C5CCCCC5)O4)O3)OC(=O)[C@@H]3C=C(C)/C(=N/O)[C@H]4OC/C(=C\C=C\[C@@H]2C)[C@]43O)O[C@@H](C)[C@@H]1O,,"inconclusive [inhibitor, partial curve]"
NC(C(=O)N[C@@H]1C(=O)N2C(C(=O)O)=C(Cl)CS[C@H]12)c1ccccc1 (stereo not given in full),,"inconclusive [inhibitor, single point]"
N[C@@H](Cn1ccc(=O)c(O)c1)C(=O)O,inactive: 6.82%,
C[C@]12C=CC(=O)C=C1CC[C@@H]1C2=CC[C@]2(C)[C@@H](C(=O)CN3CCN(c4cc(N5CCCC5)nc(N5CCCC5)n4)CC3)CC[C@@H]12,inactive: -17.1%,
CCCn1c(=O)c2[nH]c(-c3ccc(S(=O)(=O)O)cc3)nc2n(CCC)c1=O,,"inconclusive [inhibitor, partial curve, poor fit]"
N#C/C(=C\c1ccc(O)c(O)c1)C(=O)NCCc1ccccc1,,active: 2.38 µM
CCCc1c(OCCCOc2ccc(OCC(=O)O)cc2)ccc(C(C)=O)c1O,,"inconclusive [inhibitor, single point]"
Cc1cc2c(cc1Cl)N(C(=O)Nc1ccc(Oc3cccnc3C)nc1)CC2,,"inconclusive [inhibitor, partial curve, poor fit]"
